Measurements as given in paper PMC12136788.
Some of the results follow.

B1: 64651600_64654746_742_3pUTR_ENSMUSG00000029174_ENSMUST00000119756|mouse|control|control (ssRNA)
RNA: GGGAGUUCUACAGUCCGACGAUCUCGGCAGAUGAAUCCAAAGUGGUCCACAUGUCUGAUGCCCUGAGAGCAAAAGGAUAUCUCCUUAAAAUUUUUCUCCAGUGCAAUCUUUUUGGUGUCAGGACUGAUGAGGUAAACUUCAGACAACAGAGGAUUGAGCAUCA
B2: chr8:104447970:104447971:+_ENSG00000164934_ENST00000297579|hu_hu|hu_hu_hu_mus_False|78_78 (ssRNA)
RNA: GGGAGUUCUACAGUCCGACGAUCAUACACUUCCCUGCUUCGGCUCUUGUCCACAGGAAAGAUUCGAAUAGACUUAUCAAAGCUGGCAGACACAAAUUCCUUCCCAGUGGGAGAGUAGUCCACAUCAAGUACUGCAGACACGUGCAACAGAGGAUUGAGCAUCA
B3: chr9:95363179:95363180:-_ENSMUSG00000032407_ENSMUST00000079659|mus_hu|motif|central (ssRNA)
RNA: GGGAGUUCUACAGUCCGACGAUCUGAUCGCCUAGACCUUUUAGGUGUCCUUGAACCAGAUGGUGAUCUUUUGGCUUUUUUGCGGACAUCUCUAGGAGAAUCUUUGUGAGAUGACCUGGACCGUGAGCUCUCUUUAUGAGAUCUCAACAGAGGAUUGAGCAUCA
B4: chr11:68836070:68836071:+_ENSMUSG00000020898_ENSMUST00000116359|mus_hu|FALSE|FALSE (ssRNA)
RNA: GGGAGUUCUACAGUCCGACGAUCUCUCACAUAGAGGCUUCCGUUCCUGCACUCUUGUUCCAAGUCUGCCGAUAGGUCUGUUAGUGUCCCUAAAAGUAACAGCUGCUCUCGGGGCAGGGGGUUCCCAUUUGGUCCAGCCUCUUGCAACAGAGGAUUGAGCAUCA
B5: chr5:21408736:21408737:-_ENSMUSG00000042453_ENSMUST00000161356|mus_hu|mus_mus_mus_hu_False|48_108 (ssRNA)
RNA: GGGAGUUCUACAGUCCGACGAUCGUUGACAGCAUUAUAGAUGGUGGCUUCAUGGAACUGGAAAGGGGAGCAGCCAAUGCUGUUAGAAGAGGAAGGUAGGCACUGGGUCUGUACGAGCUGCCAGGAAUCCGAUCUUGCAUCCUUCAACAGAGGAUUGAGCAUCA
B6: chr15:95746395:95746396:+_ENSMUSG00000064210_ENSMUST00000071874|mus_hu|FALSE|FALSE (ssRNA)
RNA: GGGAGUUCUACAGUCCGACGAUCCCAUUCUCUGUACAGAAGGUACCGUUCAUUAGGGCAGCUGGGAUCCUCUGACUGACGGCGGAAUUUGCAAUCAUGGAGUGGGAAAGCUGCCUUGUAGAUCCCAGAGUUUACAAGUCUGUUCAACAGAGGAUUGAGCAUCA
B7: chr4:17845017:17845018:+_ENSG00000109805_ENST00000514176|hu_mus|hu_hu_hu_mus_False|48_48 (ssRNA)
RNA: GGGAGUUCUACAGUCCGACGAUCGCUCUCUUAACUUGUAUCUUCAUUAAGGAACUCUGCAAGGUUAAGUUUACUUUUCUGUAGCGCGCGGUUUUGGGCUCGUCUGGGUAAUCUCAUCUUCAUUUCUGAUGGUGGUUCAUGAUCCAACAGAGGAUUGAGCAUCA
B8: chr16:46990514:46990515:-_ENSG00000069345_ENST00000317089|hu_mus|motif|central (ssRNA)
RNA: GGGAGUUCUACAGUCCGACGAUCCAAACCCAUUGUGUGCAAAGCCCAUUUUUCCAUGCAUCUAAAUGAUAGAUACAGGCGGUGAAUUCUUUAUUCUAUUUGUAGCAGCUUAUGCAGGUGCAGCCAAACACAAAGCUUCAGGACCAACAGAGGAUUGAGCAUCA
B9: chr5:128440902:128440903:+_ENSG00000066583_ENST00000173527|hu_mus|hu_hu_hu_mus_True|8_88 (ssRNA)
RNA: GGGAGUUCUACAGUCCGACGAUCUUGAACGGUGCUGCCAAGUCCUUUAGGGUAUUGUUCCGUUAUGAUAACUGGAAUCCCUAAGAUCCGAGCUCCUUGCAACAGUCUCUGUCCCACACUAAUGAUGUCCCCAAAAUAUUUGAUCAACAGAGGAUUGAGCAUCA
B10: chr17:57724971:57724972:+_ENSG00000141367_ENST00000269122|hu_hu|FALSE|FALSE (ssRNA)
RNA: GGGAGUUCUACAGUCCGACGAUCCUGUGCAGAUAUACCAGUCAGAAGUAACCACUUUUGUUUUGCAUCUGUACGGUAAUUGAUAAUCUGGCACCCUGCAAGGCUAGAAUGGCGAUCAAACAUUUUCACUGGCUGAGACUCUCCCAACAGAGGAUUGAGCAUCA
B11: chr5:145543945:145543946:-_ENSG00000133706_ENST00000545646|hu_hu|FALSE|FALSE (ssRNA)
RNA: GGGAGUUCUACAGUCCGACGAUCCUGAAUAGCCAGUGGCGGGAAAUAAUCAAGCCAAUGUUCUGCUUCAGAAAAUUUUACUAUCUCUUCAUCAGACAGGCCAAGGGAUUUCAUAAUGCCCCACUGGUAUUUAGAAGAUCCAGCCAACAGAGGAUUGAGCAUCA
B12: chr11:51934471:51934472:+_ENSMUSG00000020349_ENSMUST00000020608|perfect_dup|FALSE|FALSE (ssRNA)
RNA: GGGAGUUCUACAGUCCGACGAUCGAUUGCAGCUUGGUUACCACAACGAUAGCAAUAGUUUGGAGCACUGAAAAUUGUUACUACGUUCCGGUCAUGGCACCAGUUAUAUCCCUCCAUCACCAGCUGGUGAGCUCUGGACACCAACAACAGAGGAUUGAGCAUCA
B13: 129712606_129712726_1589_CDS_ENSMUSG00000001052_ENSMUST00000001079|mouse|control|control (ssRNA)
RNA: GGGAGUUCUACAGUCCGACGAUCGCUGGGAUGUGCUGCGGGCAUGGGUGGUGGUGCUGCGUUCUGAUAGGCAGGCUGCAGAGCUGGGUAGCCAUAGCCAAAAGGCUUUGCCACCUUGGCUGGCUGAGCUGCAGGGGGAGUGGGCAACAGAGGAUUGAGCAUCA
B14: chr5:121768680:121768681:+_ENSMUSG00000042744_ENSMUST00000119892|mus_mus|FALSE|FALSE (ssRNA)
RNA: GGGAGUUCUACAGUCCGACGAUCUUGGGCAGUUUUCUUCUUGUCACCUGUGGACAGCCCACUCACAGUCUCUGGGUUGAUGGAUUCCACUGGUGGUCCGACACUGACAAUGAGGCCCGACUGUGCCCACUUGGUUGCUUUCCUCAACAGAGGAUUGAGCAUCA
B15: chr2:134423880:134423881:-_ENSMUSG00000034723_ENSMUST00000038228|mus_mus|FALSE|FALSE (ssRNA)
RNA: GGGAGUUCUACAGUCCGACGAUCUUUCUAGCCUCAAGAGAGUGCUGGGGAGCUGUGGUACCUGAUGUUUCUGACCUGACUAAAACACAUGCUUAACAACGACGGCAAAGACUUCCUGCACUUUAAGGAUGCUCUGGUUUUGCUCAACAGAGGAUUGAGCAUCA
B16: chr12:109526192:109526193:-_ENSG00000189046_ENST00000429722|hu_hu|FALSE|FALSE (ssRNA)
RNA: GGGAGUUCUACAGUCCGACGAUCGUGGGCCAGCGGCAGCCUGACCACCGCCACCCUCCUGGAGGGGCUUUUCCCACGGGAAUCCUUAUGCCGGAAGACAAAGUCUCUGCAGGCACCGAAGGAGACAGAGGCAAUGGGGCUCCCCAACAGAGGAUUGAGCAUCA
B17: chr2:155973683:155973684:-_ENSMUSG00000027620_ENSMUST00000109587|mus_mus|FALSE|FALSE (ssRNA)
RNA: GGGAGUUCUACAGUCCGACGAUCCAUGGACAUUUAAAACAGCAGAACAAGAGAACAGCUUUGCAUAAAGUAGGAUUUGCUAGUUAGGGAUAAUGAGCACACUGCAUUCCUGUUAACAUUUUUAUUUUUCAAGGUAACAGGAGUCAACAGAGGAUUGAGCAUCA
B18: chr14:66974463:66974464:+_ENSMUSG00000022044_ENSMUST00000074523|mus_hu|mus_mus_mus_hu_False|28_78 (ssRNA)
RNA: GGGAGUUCUACAGUCCGACGAUCUUGUAGGACGACUUAUUCAGGGGAUCGGCCAGGAAGCAAGAGCAGAACAAGGACACCAGCGGGAGCUCCUUCAUCUUCUCUUUAUAGGCUGCAAGGGUCAUGUUUCUGGGAUCUGGUGGCCAACAGAGGAUUGAGCAUCA
B19: chr7:92085846:92085847:+_ENSG00000157259_ENST00000287957|hu_hu|FALSE|FALSE (ssRNA)
RNA: GGGAGUUCUACAGUCCGACGAUCGGGGCUACAGGCGUGAGCCACCACACCAGGCCUGGAAACCCAGUUUUAAUUUGUGAACUACAAAUGGUUGGCAACUGAUUCCUUAAUUGUUAUUGCAGGAGUAGGCCCAACAUGAGUCCACAACAGAGGAUUGAGCAUCA
B20: 48531223_48531343_1013_3pUTR_ENSMUSG00000023994_ENSMUST00000046719|mouse|control|control (ssRNA)
RNA: GGGAGUUCUACAGUCCGACGAUCCUUCUGCCUCUAGCUUAGCCCGUGCUUGUCUCCUCUUAAGGAUGCGGUGAUACUGUUUGGCAUUCACAUACAGGGGCUCUUCUUCCAGCAUCUCUGCUCCAGGUAAAGGGAUUCUUUGGACAACAGAGGAUUGAGCAUCA
B21: chr3:10015032:10015033:+_ENSMUSG00000027533_ENSMUST00000029046|mus_mus|mus_mus_mus_hu_True|58_108 (ssRNA)
RNA: GGGAGUUCUACAGUCCGACGAUCGUUGUUGCCAUCACAAGUGAUGAUACAAUCUGGCUUGGCCAUUGCGCCCAUUUUCCUAAGAGCUAUUCCCACUCCUAGCUCCUUCAUGUAUUCAUCAAAGCCUUUGCUGUCCACCAGGCGCAACAGAGGAUUGAGCAUCA
B22: chr9:51871721:51871722:+_ENSMUSG00000032050_ENSMUST00000163153|mus_hu|FALSE|FALSE (ssRNA)
RNA: GGGAGUUCUACAGUCCGACGAUCUGUUUUCACCACCUGGUCAAAAAGUUGUUUGCCAGUUGUAUUGGGCUGAAUGGCAAAUUCCAGCUCAGCAUCCAUUGUAGUUACUCUUACGUUGAUUGGUUUCGGCAUUUUCUUUCUCUUCAACAGAGGAUUGAGCAUCA

target: T1, UNK ZnF1-3 (human, UniProt Q9C0B0 31-174); experiment: nsRBNS (natural sequence RNA bind-n-seq); RBNS binding buffer (assumed for nsRBNS): 25 mM Tris pH 7.5, 150 mM KCl, 3 mM MgCl2, 0.01% Triton X-100, 500 ug/ml BSA, 20 U/ml SUPERase-In, 4 C; UNK is unkempt and MSI1 is Musashi-1; names of the RNAs are library labels; protein concentration not given here; high values mean tight binding
T1 sequence: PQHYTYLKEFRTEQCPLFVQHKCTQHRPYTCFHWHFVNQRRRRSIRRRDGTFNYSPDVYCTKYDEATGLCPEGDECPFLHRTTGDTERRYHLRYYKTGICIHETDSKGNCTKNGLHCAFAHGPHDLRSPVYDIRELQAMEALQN

Q: For B1, which binding signal is on record?
A: 0.918 enrichment R

Q: Which binding signal does the source give for B2 here?
A: 1.01 enrichment R

Q: B3 was tested. Which binding signal did it give?
A: 0.35 enrichment R

Q: Which binding signal does the source give for B4 here?
A: 0.949 enrichment R

Q: With B5 as the binder, how does the binding signal read?
A: 1.5 enrichment R

Q: With B6 as the binder, how does the binding signal read?
A: 0.741 enrichment R

Q: How did the binding signal turn out when B7 was run?
A: 0.367 enrichment R

Q: How did the binding signal turn out when B8 was run?
A: 1.29 enrichment R

Q: Which binding signal does the source give for B9 here?
A: 0.753 enrichment R

Q: B10 was tested. Which binding signal did it give?
A: 0.998 enrichment R

Q: With B11 as the binder, how does the binding signal read?
A: 1.44 enrichment R

Q: How did the binding signal turn out when B12 was run?
A: 1.24 enrichment R

Q: Which binding signal does the source give for B13 here?
A: 1.14 enrichment R

Q: For B14, which binding signal is on record?
A: 0.551 enrichment R

Q: B15 was tested. Which binding signal did it give?
A: 0.879 enrichment R

Q: B16 was tested. Which binding signal did it give?
A: 0.878 enrichment R

Q: With B17 as the binder, how does the binding signal read?
A: 1.54 enrichment R

Q: With B18 as the binder, how does the binding signal read?
A: 1.86 enrichment R

Q: For B19, which binding signal is on record?
A: 1.51 enrichment R

Q: B20 was tested. Which binding signal did it give?
A: 0.782 enrichment R

Q: How did the binding signal turn out when B21 was run?
A: 0.525 enrichment R

Q: With B22 as the binder, how does the binding signal read?
A: 0.41 enrichment R
